# Laboratory results as given in the supplement of paper PMC7826260.
# The other results are listed elsewhere or left out. Cleavage of a single-stranded DNA pool by Rep nickase domains was read by sequencing at 3 µM enzyme and 37 °C for 1 h; the strands have 90 letters, of which the middle is given. Uncut reads are compared with the no-enzyme pool on a log2 scale; more negative means more cut, near 0 not cut, and no call is made. Shares of all reads are compared, so uncut sequences can rise above 0 when many others are cut.
# How the values were obtained:
# Assay in all cases: uncleaved DNA left, log2 of reads against the no-enzyme library (log2 ratio); higher = less cleavage (more negative = more Rep cleavage of the k-mer); sequences stand for … in CTCGTCCG…ACCGGAGA
# [1] = test system: T1, Rep nickase domain of Muscovy duck circovirus
# T1 sequence (Rep 1-111, printed without the tag): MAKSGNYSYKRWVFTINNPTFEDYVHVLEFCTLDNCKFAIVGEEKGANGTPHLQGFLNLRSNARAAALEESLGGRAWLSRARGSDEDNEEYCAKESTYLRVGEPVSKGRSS
# Method: (§1)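 A pool of 90-nt single-stranded DNAs with seven random bases just before the constant AC of the nick site (name = the seven bases) was cut by 3 µM recombinant His6-SUMO-tagged Rep nickase domain (300 nM DNA, 50 mM HEPES pH 8.0, 50 mM NaCl, 1 mM MnCl2, 1 h, 37 °C, three replicates). Uncut DNA was amplified and sequenced.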
# [2] = test system: T2, Rep nickase domain of banana bunchy top virus
# T2 sequence (Rep 1-94, printed without the tag): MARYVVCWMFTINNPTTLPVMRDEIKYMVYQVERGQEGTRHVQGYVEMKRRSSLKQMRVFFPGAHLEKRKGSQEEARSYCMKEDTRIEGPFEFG
# Method: as §1
# [3] = test system: T3, Rep nickase domain of cabbage leaf curl virus
# T3 sequence (Rep 1-116, printed without the tag): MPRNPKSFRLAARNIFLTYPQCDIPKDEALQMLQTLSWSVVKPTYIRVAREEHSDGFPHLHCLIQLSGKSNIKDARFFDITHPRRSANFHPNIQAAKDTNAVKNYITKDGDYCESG
# Method: as §1
# [4] = test system: T4, Rep nickase domain of chickpea chlorotic dwarf virus
# T4 sequence (Rep 1-124, printed without the tag): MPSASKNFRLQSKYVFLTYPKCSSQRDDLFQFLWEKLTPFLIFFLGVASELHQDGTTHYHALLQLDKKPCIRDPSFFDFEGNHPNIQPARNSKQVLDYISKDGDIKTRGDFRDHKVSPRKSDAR
# Method: as §1
# [5] = test system: T5, Rep nickase domain of faba bean necrotic yellows virus
# T5 sequence (Rep 1-98, printed without the tag): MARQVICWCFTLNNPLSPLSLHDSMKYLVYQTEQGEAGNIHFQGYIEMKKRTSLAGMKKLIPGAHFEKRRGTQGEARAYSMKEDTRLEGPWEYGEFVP
# Method: as §1
# [6] = test system: T6, Rep nickase domain of maize striate mosaic virus
# T6 sequence (Rep 1-117, printed without the tag): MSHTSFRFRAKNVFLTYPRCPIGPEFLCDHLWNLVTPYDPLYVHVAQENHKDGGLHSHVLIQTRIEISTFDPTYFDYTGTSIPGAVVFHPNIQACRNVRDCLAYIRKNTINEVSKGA
# Method: as §1
# [7] = test system: T7, Rep nickase domain of porcine circovirus 2
# T7 sequence (Rep 2-116, printed without the tag): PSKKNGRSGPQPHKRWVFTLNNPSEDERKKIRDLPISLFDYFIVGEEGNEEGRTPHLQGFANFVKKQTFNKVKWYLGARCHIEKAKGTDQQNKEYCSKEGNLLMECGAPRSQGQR
# Method: as §1
# [8] = test system: T8, Rep nickase domain of tomato golden mosaic virus
# T8 sequence (Rep 1-124, printed without the tag): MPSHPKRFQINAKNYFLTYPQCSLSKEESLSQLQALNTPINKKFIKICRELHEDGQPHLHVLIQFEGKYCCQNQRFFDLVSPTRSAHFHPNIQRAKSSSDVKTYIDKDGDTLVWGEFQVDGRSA
# Method: as §1
# [9] = test system: T9, Rep nickase domain of tomato yellow leaf curl virus
# T9 sequence (Rep 1-136, printed without the tag): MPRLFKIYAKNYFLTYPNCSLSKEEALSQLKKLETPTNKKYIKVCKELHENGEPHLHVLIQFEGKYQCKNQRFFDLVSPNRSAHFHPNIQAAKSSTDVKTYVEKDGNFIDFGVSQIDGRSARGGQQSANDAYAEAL
# Method: as §1
# [10] = test system: T10, Rep nickase domain of wheat dwarf virus
# T10 sequence (Rep 1-137, printed without the tag): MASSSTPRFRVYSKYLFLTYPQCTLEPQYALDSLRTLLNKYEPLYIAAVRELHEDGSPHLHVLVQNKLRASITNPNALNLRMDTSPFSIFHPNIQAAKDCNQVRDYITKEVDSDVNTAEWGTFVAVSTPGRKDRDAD
# Method: as §1
Sequence,uncleaved DNA left (log2) [1],uncleaved DNA left (log2) [2],uncleaved DNA left (log2) [3],uncleaved DNA left (log2) [4],uncleaved DNA left (log2) [5],uncleaved DNA left (log2) [6],uncleaved DNA left (log2) [7],uncleaved DNA left (log2) [8],uncleaved DNA left (log2) [9],uncleaved DNA left (log2) [10]
GTTGCCA,-0.0323,-0.0393,0.231,0.835,-0.0282,1.39,0.0519,0.0713,0.00358,0.0275
GACAGTC,-0.057,0.0609,0.52,1.15,-0.0361,1.32,0.146,-0.0371,0.0142,0.031
CAGGTCC,0.128,0.189,0.249,0.441,0.166,0.44,0.118,0.194,0.148,0.189
GTGTCCG,-0.0271,-0.00847,-0.411,-0.428,-0.0338,-0.531,0.0553,0.0281,0.0236,-0.0339
CGGGTGA,-0.00479,-0.0192,0.119,0.584,0.0128,1.18,0.0057,0.0502,-0.0112,0.00343
TTCTGTC,0.101,0.0576,0.124,-0.172,-0.0242,-0.773,-0.106,-0.224,-0.0588,0.0429
GATGAAT,0.0691,0.146,0.278,0.676,0.043,1.46,0.0603,0.175,0.0602,0.199
ACTGCAG,-0.189,-0.202,-0.896,-0.278,-0.0566,-1.17,0.0138,-0.104,-0.0617,-0.147
AAAGTGA,-0.0213,-0.0128,-0.174,-0.17,0.0356,-0.642,0.0111,-0.0693,-0.133,0.0149
ATCCACA,-0.0773,0.0567,-0.168,-1.36,0.0923,-0.688,-0.112,0.0753,-0.0248,0.11
GCCGGGA,0.0539,0.163,0.827,1.14,0.0786,1.86,0.205,0.148,0.0415,0.165
TTAATGG,0.165,0.154,0.513,1.05,0.15,1.04,0.283,0.244,0.0466,0.205
GAAGAAT,0.207,0.236,0.31,0.853,0.025,1.67,0.115,0.209,0.041,0.169
TGATTCA,-0.0911,0.147,0.319,-0.443,0.0717,0.084,-0.0604,0.168,0.221,0.212
TTATTAA,0.187,0.215,0.26,0.00996,0.166,0.228,0.113,0.08,0.144,0.127
GACAGAA,-0.0398,0.0249,0.427,0.843,-0.0182,0.636,0.063,0.106,-0.0301,0.0751
GCCTGCT,-0.462,-0.0566,-0.393,-0.458,-0.0218,-0.767,-1.75,0.0455,-0.105,-0.199
TAGGGAG,0.22,0.0986,0.0721,0.408,0.0553,-0.101,0.276,0.0775,0.0113,0.00982
GGTAGGG,0.0418,-0.0181,0.188,0.533,-0.0772,0.31,0.0753,0.000228,-0.045,0.0136
AATCTTC,0.0981,0.0235,-0.0471,-0.444,0.097,-0.358,-0.186,-0.0564,0.0281,0.143

Sequence,uncleaved DNA left (log2) [1],uncleaved DNA left (log2) [2],uncleaved DNA left (log2) [3],uncleaved DNA left (log2) [4],uncleaved DNA left (log2) [5],uncleaved DNA left (log2) [6],uncleaved DNA left (log2) [7],uncleaved DNA left (log2) [8],uncleaved DNA left (log2) [9],uncleaved DNA left (log2) [10]
TATCCAA,0.00858,0.0303,0.108,-0.0994,0.0198,-0.264,-0.067,-0.00456,0.093,0.0931
CTAATCT,-0.0472,0.119,0.221,-2.07,-0.0299,-0.728,-0.0151,-0.07,0.0709,0.0545
TCTCTGC,0.0595,-0.0152,-0.335,-0.776,0.0689,-1.03,0.0681,-0.0202,-0.0795,-0.1
AGTTAGG,0.124,0.135,0.293,1.18,0.103,1.04,0.188,0.213,-0.0348,0.0527
GGCATAG,0.143,0.114,0.0549,0.506,0.0705,0.0587,0.171,0.188,0.115,0.136
TAATCCT,-4.04,-0.868,-5.26,-3.71,-0.2,-3.58,-4.32,-4.54,-1.38,-4.59
GCGTGTT,-2.06,-0.39,-0.685,-1.14,-1.02,0.41,-2.59,-0.305,0.0344,-0.776
TGACGTT,0.0665,-0.111,0.338,0.127,0.0436,1.36,-0.0352,-0.0544,0.142,0.014
CGTTCAC,-0.157,-0.0464,0.0892,-0.294,-0.0132,-0.266,0.0197,-0.0852,0.0997,0.0259
ATCGGCG,0.113,0.179,-0.508,0.891,0.22,-0.0793,0.297,0.0172,0.103,0.0111
CGCATAA,-0.0572,-0.0258,-0.421,-0.305,-0.0632,-0.687,-0.0529,-0.153,-0.0495,-0.0603
GGGGGAC,-0.0297,0.046,0.802,1.74,-0.0915,2.26,0.284,0.131,-0.0306,0.0365
ACTATTG,0.0205,-0.00263,-0.471,-0.235,0.0807,-1.08,0.208,-0.0242,0.0137,-0.021
GACCGTG,-0.127,-0.101,-0.514,-0.539,-0.127,-0.851,-0.0586,-0.127,-0.0733,-0.165
TTCCTGG,0.0347,-0.0194,0.183,0.633,-0.123,0.798,0.0249,-0.0744,-0.149,-0.0976
CTAAGAT,0.11,0.0305,-1.67,-2.22,0.116,0.668,0.209,-0.0373,0.0237,-0.108
TTCTTAT,-0.532,0.00539,0.274,-0.525,0.202,-0.157,-1.84,0.0835,0.0659,0.102
TGATGTT,-3.33,-0.535,-2.06,-2.91,-0.165,-1.52,-3.42,-0.789,-0.0369,-2.6
CAATCCT,-2.36,-0.227,-4.06,-3.56,-0.0213,-2.98,-3.78,-3.62,-0.149,-3.65
CCCCAAA,-0.254,-0.273,-0.185,-0.413,-0.133,-0.905,-0.292,-0.224,-0.211,-0.224

Sequence,uncleaved DNA left (log2) [1],uncleaved DNA left (log2) [2],uncleaved DNA left (log2) [3],uncleaved DNA left (log2) [4],uncleaved DNA left (log2) [5],uncleaved DNA left (log2) [6],uncleaved DNA left (log2) [7],uncleaved DNA left (log2) [8],uncleaved DNA left (log2) [9],uncleaved DNA left (log2) [10]
GCACCGG,-0.078,-0.0365,0.405,1.23,-0.0814,1.53,-0.0247,0.0655,-0.0245,-0.0546
CGCAAGA,0.105,0.0856,0.205,0.131,0.167,-0.549,0.176,0.147,0.0887,0.0967
AATGATG,0.104,-0.088,0.0829,0.923,0.0454,0.824,0.138,0.0705,-0.17,0.0528
TGACCGG,0.078,0.0626,0.301,0.93,0.116,0.689,0.171,0.157,0.0362,0.0536
ATACGGT,0.177,0.00602,0.105,0.686,0.0297,1.32,0.129,0.000895,-0.0772,0.0205
CGCGTCT,-0.0459,-0.133,-0.26,-0.947,0.00874,-0.314,-0.12,-0.156,-0.138,-0.143
CTCCTCC,0.0502,-0.0091,0.179,0.222,0.0326,0.639,0.126,-0.0776,-0.0157,0.0366
AGTAGCA,0.0989,0.0291,-0.148,-0.39,0.109,-0.782,-0.51,0.0668,0.158,0.043
GAACAGT,0.0701,0.151,0.768,1.27,0.0188,1.79,0.288,0.0597,0.0607,0.21
CTACCGC,-0.001,-0.0434,-0.302,-1.41,-0.000753,-0.714,-0.17,-0.0918,-0.094,0.0185
TATCGCC,-0.00238,0.00758,-0.188,-0.519,-0.0482,-0.896,-0.0697,-0.0836,-0.0871,-0.00311
ACACAAG,-0.0132,-0.0497,-0.586,0.313,0.0267,-0.526,0.251,-0.0738,0.089,-0.00841
CAGCCCT,-0.138,-0.0821,-0.0562,-2.4,-0.128,0.0252,-2.06,-0.159,-0.0985,-0.0993
GACTAGG,0.0308,0.0735,0.348,1,0.00861,0.82,0.169,0.242,0.0602,0.0764
CCATCCC,-0.0205,-0.117,-0.193,-0.355,-0.0592,-0.469,-0.0563,-0.219,-0.272,-0.174
AATGAAA,0.00932,-0.0692,0.0164,-0.0469,-0.00328,-0.198,0.00614,-0.0403,-0.036,0.105
TACTAAA,-0.163,-0.0393,-0.138,-1.34,0.0493,-0.574,-2.28,0.0444,0.0153,-0.00456
CGAGGTA,-0.0258,-0.0534,0.0304,0.242,-0.119,0.426,-0.325,0.00619,0.0314,0.00474
